The other results are listed elsewhere or left out. These are noisy estimates, calculated here from bound and input reads.
What follows are sequences tested against T1, Pho4 (S. cerevisiae) (UniProt P07270) (assay: relative binding free energy (BET-seq); higher = weaker binding). Details: reference: library average.
T1 sequence: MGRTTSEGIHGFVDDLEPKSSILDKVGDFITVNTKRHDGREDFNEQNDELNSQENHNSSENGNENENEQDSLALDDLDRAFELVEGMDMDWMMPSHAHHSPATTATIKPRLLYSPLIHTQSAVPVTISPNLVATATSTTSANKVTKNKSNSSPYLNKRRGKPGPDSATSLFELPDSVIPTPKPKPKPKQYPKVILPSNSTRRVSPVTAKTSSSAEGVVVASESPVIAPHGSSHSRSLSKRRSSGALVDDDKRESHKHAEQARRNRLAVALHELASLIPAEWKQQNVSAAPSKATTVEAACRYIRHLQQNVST
For GGGGTCACGTGGCAGT, the “relative binding free energy” value was 0.04 kcal/mol.
In the case of GAGAGCACGTGGGATC, the “relative binding free energy” value is reported as 0.06 kcal/mol.
TTGGGCACGTGGTGGA was tested, and the “relative binding free energy” value was -0.1 kcal/mol.
With TAGCGCACGTGTGTTT the “relative binding free energy” value was 0.13 kcal/mol.
With AGCGTCACGTGGGGAC the “relative binding free energy” value was -0.08 kcal/mol.
In the case of GGTCTCACGTGCTTTT, the “relative binding free energy” value is reported as 0.37 kcal/mol.
For TTGCGCACGTGCGGTA, the “relative binding free energy” value was 0 kcal/mol.
In the case of GGCGACACGTGCTGGT, the “relative binding free energy” value is reported as 0.04 kcal/mol.
For ATGATCACGTGGAGTA, the “relative binding free energy” value was 0.2 kcal/mol.
ATCTACACGTGTGAGG was tested, and the “relative binding free energy” value was 0.18 kcal/mol.
For TGGGTCACGTGATTGG, the “relative binding free energy” value was 0.37 kcal/mol.
GCGTACACGTGGGGTT was tested, and the “relative binding free energy” value was -0.06 kcal/mol.
For CTGGGCACGTGGGAAG, the “relative binding free energy” value was -0.1 kcal/mol.
In the case of TATCACACGTGGTAGT, the “relative binding free energy” value is reported as -0.06 kcal/mol.
In the case of GGATACACGTGAAAGT, the “relative binding free energy” value is reported as 0.44 kcal/mol.
In the case of TGTATCACGTGTGGTC, the “relative binding free energy” value is reported as 0.29 kcal/mol.
GCGGGCACGTGGTCAG was tested, and the “relative binding free energy” value was -0.22 kcal/mol.
For GTAGTCACGTGAGTGA, the “relative binding free energy” value was 0.3 kcal/mol.
With GTGTGCACGTGTGAAT the “relative binding free energy” value was 0.12 kcal/mol.
For GGTTACACGTGTTCAG, the “relative binding free energy” value was 0.11 kcal/mol.
For GAGTTCACGTGTTTAA, the “relative binding free energy” value was 0.47 kcal/mol.
In the case of TAGAGCACGTGGGTCT, the “relative binding free energy” value is reported as -0.24 kcal/mol.
In the case of AGTGACACGTGTTTAT, the “relative binding free energy” value is reported as 0.01 kcal/mol.
In the case of GGTATCACGTGTGCTG, the “relative binding free energy” value is reported as 0.11 kcal/mol.
With GTTGTCACGTGGCCTT the “relative binding free energy” value was -0.07 kcal/mol.
In the case of AAGGCCACGTGGGAGG, the “relative binding free energy” value is reported as -0.21 kcal/mol.
With GCCGTCACGTGAGGTT the “relative binding free energy” value was 0.3 kcal/mol.
With GTTGTCACGTGAACTG the “relative binding free energy” value was 0.27 kcal/mol.
AAGTCCACGTGTAGGG was tested, and the “relative binding free energy” value was 0.12 kcal/mol.
For GGTAACACGTGTGGAT, the “relative binding free energy” value was -0.02 kcal/mol.
With TAGCTCACGTGTGTGG the “relative binding free energy” value was 0.2 kcal/mol.
For ATTATCACGTGGATCG, the “relative binding free energy” value was 0.21 kcal/mol.
With GGACTCACGTGAAGTG the “relative binding free energy” value was 0.3 kcal/mol.
In the case of AATTTCACGTGTGCTA, the “relative binding free energy” value is reported as 0.33 kcal/mol.
With TGGTGCACGTGTTTAC the “relative binding free energy” value was -0.12 kcal/mol.
For TAATGCACGTGAGGTA, the “relative binding free energy” value was 0.19 kcal/mol.
ACAGGCACGTGAGGTG was tested, and the “relative binding free energy” value was -0.03 kcal/mol.
With CGGCTCACGTGAGGGG the “relative binding free energy” value was 0.29 kcal/mol.
With TGAATCACGTGTGTAG the “relative binding free energy” value was 0.26 kcal/mol.
AGTATCACGTGCATTG was tested, and the “relative binding free energy” value was 0.09 kcal/mol.
With AGTGCCACGTGAATTT the “relative binding free energy” value was 0.2 kcal/mol.
For GTGAACACGTGATAGT, the “relative binding free energy” value was 0.13 kcal/mol.
For AATGGCACGTGTTAAA, the “relative binding free energy” value was 0.02 kcal/mol.
In the case of TAGCGCACGTGAAGTG, the “relative binding free energy” value is reported as 0.06 kcal/mol.
With CGGGTCACGTGCAATG the “relative binding free energy” value was 0.2 kcal/mol.
With ATCATCACGTGGCTTG the “relative binding free energy” value was 0.19 kcal/mol.
TTTTGCACGTGAGGAA was tested, and the “relative binding free energy” value was 0.18 kcal/mol.
TTGCGCACGTGTGATA was tested, and the “relative binding free energy” value was -0.1 kcal/mol.
With CGAGTCACGTGGGGAA the “relative binding free energy” value was 0.02 kcal/mol.
TGTTGCACGTGCTATG was tested, and the “relative binding free energy” value was 0 kcal/mol.
With CTTTTCACGTGGCAGG the “relative binding free energy” value was 0.26 kcal/mol.
For TCGTGCACGTGGTTAT, the “relative binding free energy” value was -0.14 kcal/mol.
For GGACGCACGTGTGGAT, the “relative binding free energy” value was -0.15 kcal/mol.
In the case of ATGTTCACGTGGACGA, the “relative binding free energy” value is reported as 0.31 kcal/mol.
In the case of TTCGTCACGTGTTTGT, the “relative binding free energy” value is reported as 0.09 kcal/mol.
For GGGGACACGTGTGTAT, the “relative binding free energy” value was 0.12 kcal/mol.
For GTAGTCACGTGTCTTT, the “relative binding free energy” value was 0.08 kcal/mol.

Source: the BET-seq Pho4 binding data (Le et al. 2018)
